{
  "source": "PubChem BioAssay AID1457",
  "about": "(National Center for Advancing Translational Sciences (NCATS), 2008)",
  "note": "The whole screen tested about 210,000 compounds, of which about 730 (0.35%) were called active. The shares of active, inactive and inconclusive entries below differ from those in the screen. Calls come from the whole dose curve; as a rule, active = well fitted inhibition curve with a large enough effect; inconclusive = small, poorly fitted or top-dose-only effect; inactive = no such curve, though single readings can be large or run the other way. Where the call is inconclusive, the potency comes from a doubtful curve fit. Potency is the fitted concentration of half-maximal effect.",
  "data": [
    {"experiment": "qHTS Assay for Identifying the Cell-Membrane Permeable IMPase Inhibitors: Potentiation with Lithium; note: nearly all actives have a fitted effect of over 50% in size;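 for activity, negative = IMPase inhibition: plate controls were basal vehicle for no effect and high inhibitor control for full effect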", "conditions": "CHO-M1 cells, IP1 TR-FRET (IP-One), carbachol + lithium; series mostly up to 59.4 µM; activity, negative = IMPase inhibition: at the top concentration", "source_text": "NIH Chemical Genomics Center [NCGC]\nNIH Molecular Libraries Probe Production centers Network [MLPCN]\nAssay Submitter (PI): Wei Zheng\nLithium has been widely used for the treatment of bipolar disorder. But lithium has a narrow therapeutic index and it can cause side effects such as thirst, weight gain, tremor, polyuria and memory problems. Although the mechanism for lithium action in treatment of bipolar disorder is still not fully understood, inhibition of inositol monophosphatase (IMPase) and the subsequent depletion of the inositol pool in living cells have been implicated as the primary therapeutic benefit of lithium therapy. Therefore, a selective IMPase inhibitor with reduced side effects might be a good drug candidate to replace lithium for the treatment of bipolar disorder. Several IMPase inhibitors have been discovered previously. However, they are not suitable for therapeutic use because of their poor cell membrane penetrability or oral bioavailability; the development of new cell-permeable IMPase inhibitors is needed.\nIMPase catalyzes the hydrolysis of inositol-1-phosphate (IP1) to release free inositol. Binding of an agonist to a Gq coupled GPCR results in the activation of PLC, which hydrolyzes the PIP2 to form inositol-1,4,5-trisphosphate (IP3) and diacyl glycerol (DAG). While DAG activates protein kinase C (PKC), IP3 triggers the elevation of intracellular free Ca2+. The IP3 is very rapidly inactivated by hydrolysis to IP2, IP1 and then inositol by a series of enzymes including IMPase. Free inositols are used for synthesis of PI and thus start another inositol cycle.\nTo identify new cell-permeable IMPase inhibitors, we developed a cell-based IMPase assay in which the cytosolic IP1 is measured by a time-resolved fluorescence resonance energy transfer (TR-FRET) assay. In this assay, an IP1 specific antibody is used to detect the labeled IP1 tracer. When the cell lysate contains the elevated IP1 due to the inhibition of IMPase, the TR-FRET between the labeled antibody and IP1 tracer is disrupted resulting in a reduction in the total signal. Since the TR-FRET is used, this cell-based assay is a homogenous assay without cell wash and medium change that is suitable for assay miniaturization and HTS. In this particular assay, a small amount of lithium is added to potentiate the response of weak activators.\nNCGC Assay Protocol Summary:\nA Chinese hamster ovary (CHO) cell line stably expressing the M1 receptor (CHO-M1) was obtained from ATCC and maintained in F-12 Kaighn's media (Invitrogen, Carlsbad, CA) supplemented with 10 % FBS, 100 units/ml penicillin, 100 ug/ml streptomycin and 250 ug/ml geneticin at 37C, 5% CO2 in a humidified atmosphere. Before the assay, aliquots of cells were frozen and stored at -135C. The assay was performed in 1536-well format. Data are reported for both the ratio of the two emission wavelengths, and also for the component 'donor' channel, Em2=620. […] AC50 values were determined from concentration-response data modeled with the standard Hill equation.\n(1) Frozen CHO-M1 cells were thaw, washed once with fresh media and resuspended in F12K media containing 10% FBS, 100 units/ml penicillin and 100 ug/ml streptomycin. Cells were plated at 4ul/well (2000 cells) in white, tissue culture treated 1536-well plates, and then cultured at 37C, 5 % CO2 for 16 to 30 hours.\n(2) Add 23 nl/well of compound in DMSO solution. The final titration for each compound was between 0.6 nM and 46 uM.\n(4) Incubation at 37C, 5 % CO2 for 30 min.\n(5) Add 1 ul/well of d2-conjugated IP1 (d2-IP1) and 1 ul/well of Eu+ cryptate conjugated anti-IP1 antibody (Eu+-Ab) prepared in the cell lysis buffer, both from the IP-One kit (Cisbio, MA).\n(6) Incubate at room temperature for 10 minutes.\n(7) Detect the assay plate (Ex = 320, Em1 =665 and Em2 620) in a ViewLux plate reader.", "values": [
      {"smiles": "COC(=O)c1cccc(Cn2c(Cl)c(/C=N/Nc3ccccc3C)sc2=O)c1", "activity, negative = IMPase inhibition": "inactive: 9.46%"},
      {"smiles": "Cc1[nH]nc2c1C(c1ccc(-c3ccc(Cl)cc3)o1)C(C#N)=C(N)O2", "note": "(configuration not stated)", "activity, negative = IMPase inhibition": "inactive: 1.78%"},
      {"smiles": "O=C(Nc1nc2c(s1)CCCC2)C1COc2ccccc2O1", "note": "(configuration not stated)", "Potency": "inconclusive: 12.6 µM [inhibitor, single point]"},
      {"smiles": "COc1ccc(C2C(C(C)=O)=C(O)C(=O)N2c2cccnc2)c(OC)c1", "note": "(configuration not stated)", "Potency": "inconclusive: 11.2 µM [inhibitor, partial curve]"},
      {"smiles": "On1c2c(c3c4nonc4ccc31)CCCC2", "activity, negative = IMPase inhibition": "inactive: 9.19%"},
      {"smiles": "COc1ccc(-n2c(=S)[nH]c3cc(C(=O)NCCCN4CCCC4=O)ccc3c2=O)cc1", "activity, negative = IMPase inhibition": "inactive: 0.913% [at 38.3 µM]"},
      {"smiles": "CN1CCN(C(=S)NC(=O)c2ccco2)CC1", "activity, negative = IMPase inhibition": "inactive: -0.883%"},
      {"smiles": "CCOc1ccc(-c2nnc3ccc(SCc4ccc(C(=O)OC)o4)nn23)cc1", "Potency": "inconclusive: 28.2 µM [inhibitor, single point]"},
      {"smiles": "Cc1ccc(C(=O)CSc2nn3c(=O)c(C(C)(C)C)nnc3s2)cc1", "Potency": "inconclusive: 28.2 µM [inhibitor, single point]"},
      {"smiles": "CN1CCN(S(=O)(=O)c2ccc3ccccc3c2)CC1", "Potency": "inconclusive: 0.447 µM [inhibitor, full curve, poor fit]"},
      {"smiles": "CC(=O)c1sc(NC(=O)c2ccccc2F)nc1-c1ccccc1", "Potency": "inconclusive: 2.24 µM [inhibitor, full curve]"},
      {"smiles": "CCOc1cc(C2C3=C(CCCC3=O)NC3=C2C(=O)CCC3)cc(Cl)c1O", "activity, negative = IMPase inhibition": "inactive: 13.7% [at 38.3 µM]"},
      {"smiles": "Cc1c(N=Cc2ccc(Cl)o2)c(=O)n(-c2ccccc2)n1C", "activity, negative = IMPase inhibition": "inactive: -9.01% [at 38.3 µM]"},
      {"smiles": "O=C1CCCc2c1nc(-c1ccco1)n2O", "Potency": "inconclusive: 7.08 µM [inhibitor, partial curve]"},
      {"smiles": "CCOC(=O)Cc1cc(-c2ccc(F)cc2)nc2ccc3ccccc3c12", "Potency": "inconclusive: 28.2 µM [inhibitor, single point]"},
      {"smiles": "COc1ccc(NC(=O)Cn2cnc3c(cnn3-c3ccc(C)c(C)c3)c2=O)c(OC)c1", "Potency": "inconclusive: 31.6 µM [inhibitor, single point]"},
      {"smiles": "CCOC(=O)N1CCC(NC(=O)c2ccc3c(c2)sc2nc(-c4ccc(OC)cc4)cn23)CC1", "Potency": "inconclusive: 10 µM [inhibitor, single point]"},
      {"smiles": "O=C(CSc1ncnc2c1oc1ccccc12)Nc1nccs1", "Potency": "inconclusive: 10 µM [inhibitor, partial curve]"},
      {"smiles": "CC(=O)c1ccc(NC(=O)CSc2nc(N)c3cc4c(nc3n2)CCCC4)cc1", "Potency": "inconclusive: 22.4 µM [inhibitor, single point]"},
      {"smiles": "O=C(Nc1cccc2nsnc12)c1ccc(F)cc1", "Potency": "inconclusive: 14.1 µM [inhibitor, single point]"},
      {"smiles": "Cc1ccc2c(C)nc(SC(C(=O)c3ccccc3)c3ccccc3)nc2c1", "note": "(configuration not stated)", "Potency": "inconclusive: 28.2 µM [inhibitor, single point]"},
      {"smiles": "Cc1nc(N2CCC(C)CC2)c2c(C)c(C(=O)O)sc2n1", "Potency": "inconclusive: 10 µM [inhibitor, single point]"},
      {"smiles": "O=C(N1CCOCC1)N1CCN(C(=O)N(c2ccccc2)c2ccccc2)CC1", "Potency": "inconclusive: 2 µM [inhibitor, full curve, poor fit]"},
      {"smiles": "COc1ccc(-c2cc(C(=O)NCc3ccccc3)no2)cc1OC", "Potency": "inconclusive: 11.2 µM [inhibitor, partial curve]"},
      {"smiles": "CC(C)(CSc1ncccn1)NS(=O)(=O)c1ccccc1", "activity, negative = IMPase inhibition": "inactive: 6.15%"},
      {"smiles": "Fc1ccc(C(c2nnnn2Cc2ccco2)N2CCN(C3CCCCC3)CC2)cc1", "note": "(configuration not stated)", "activity, negative = IMPase inhibition": "inactive: 24.3% [at 38.3 µM]"},
      {"smiles": "COc1ccc(C2(C)NC(=O)N(CC(=O)Nc3ccc(-c4nc5ccc(C)cc5s4)cc3)C2=O)cc1", "note": "(configuration not stated)", "Potency": "inconclusive: 12.6 µM [inhibitor, single point]"},
      {"smiles": "Cn1c(C(=O)N2COCC2(C)C)cc2c(=O)n3ccccc3nc21", "Potency": "inconclusive: 11.2 µM [inhibitor, partial curve]"},
      {"smiles": "O=C(NCc1ccc2c(c1)OCO2)c1cccc(C(=O)NCc2ccc3c(c2)OCO3)c1", "activity, negative = IMPase inhibition": "inactive: 26.9% [at 38.3 µM]"},
      {"smiles": "Cc1cc(-c2nnc(SCC(=O)c3ccc(F)cc3)o2)no1", "Potency": "inconclusive: 14.1 µM [inhibitor, single point]"},
      {"smiles": "Cc1ccc(C2C(C(=O)c3cccs3)=C(O)C(=O)N2c2nnc(C)s2)cc1", "note": "(configuration not stated)", "Potency": "inconclusive: 10 µM [inhibitor, partial curve]"},
      {"smiles": "CCOc1ccc2cc(S(=O)(=O)N3CCOCC3)ccc2c1", "Potency": "inconclusive: 14.1 µM [inhibitor, single point]"},
      {"smiles": "Cc1nn(C)cc1CN(C)C(=O)c1cc(-c2ccccc2)nc2ccc(Br)cc12", "Potency": "inconclusive: 12.6 µM [inhibitor, single point]"},
      {"smiles": "Cc1ccc(C)c(N2CCN(C(=S)Nc3ccc4nc(N5CCOCC5)cc(C)c4c3)CC2)c1", "Potency": "inconclusive: 28.2 µM [inhibitor, single point]"},
      {"smiles": "CSCCC(NC(=O)c1ccccc1C)C(=O)O", "note": "(configuration not stated)", "activity, negative = IMPase inhibition": "inactive: -6.13%"},
      {"smiles": "C=CCN1N=C(/C=C/c2ccc(C)cc2)CCC1=O", "Potency": "inconclusive: 3.16 µM [inhibitor, single point]"},
      {"smiles": "Cc1cc(-c2nc3cccnc3s2)ccc1NS(=O)(=O)c1cccs1", "Potency": "inconclusive: 28.2 µM [inhibitor, single point]"}
    ]}
  ]
}
